Here are results for one molecule from US20210355220A1 (TIKCRO TECHNOLOGIES, published 2021).

The target of experiment [1] is T1, recombinant human CD80-mFC (human; mouse, UniProt P33681 35-242).
T1 construct: extracellular domain; also called B7.1; not shown: mouse IgG2b Fc segment
T1 sequence (looked up): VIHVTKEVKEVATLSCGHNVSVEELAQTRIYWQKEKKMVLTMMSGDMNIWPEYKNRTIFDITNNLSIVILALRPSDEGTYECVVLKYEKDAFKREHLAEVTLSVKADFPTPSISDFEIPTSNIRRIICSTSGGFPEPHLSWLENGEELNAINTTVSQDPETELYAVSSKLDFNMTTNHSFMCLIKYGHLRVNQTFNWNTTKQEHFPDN
Kind of experiment: flow cytometry on HEK293-hCTLA-4 cells incubated with 1 ug/ml antibody, CD80 in serial dilution, bound antibody detected with anti-human secondary; competitor: Ab55h.

Experiment [2] addresses T2, recombinant human CD86-mFC (human; mouse, UniProt P42081 24-247).
T2 construct: extracellular domain; also called B7.2; not shown: mouse IgG2b Fc segment
T2 sequence (looked up): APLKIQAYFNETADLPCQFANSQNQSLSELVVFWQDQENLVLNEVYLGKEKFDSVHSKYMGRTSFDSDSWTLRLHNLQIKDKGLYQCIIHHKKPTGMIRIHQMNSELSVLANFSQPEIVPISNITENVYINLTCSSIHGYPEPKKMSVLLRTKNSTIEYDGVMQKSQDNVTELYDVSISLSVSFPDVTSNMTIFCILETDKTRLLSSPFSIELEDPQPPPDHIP
Kind of experiment: flow cytometry on HEK293-hCTLA-4 cells incubated with 1 ug/ml antibody, CD86 in serial dilution, bound antibody detected with anti-human secondary; competitor: Ab55h.

B1: human CTLA-4 expressed on cells (receptor)
chain: not shown
notes: whole, on cells; On stably or transiently transfected HEK293 cells; also called hCTLA-4; HEK293-hCTLA-4 cells
For B1, the binding result in experiment [1] and in experiment [2] was “binds” in each case.
